Where “and” joins values, the source holds several entries; their conditions need not be identical. Identical values can stand only once. Among all 420,000 compounds or so, about 64,000 (15%) were called active. The inconclusive results got no clear call from the source; some entries with a clear call stand among them for comparison. Calls come from the whole dose curve; as a rule, active = well fitted inhibition curve with a large enough effect; inconclusive = small, poorly fitted or top-dose-only effect; inactive = flat fitted curve, though single readings scatter. Where the call is inconclusive, the potency comes from a doubtful curve fit.
experiment: qHTS for Inhibitors of human tyrosyl-DNA phosphodiesterase 1 (TDP1): qHTS in cells in absence of CPT; details: DT40 Tdp1-/- hTDP1 cells, no CPT, ATP luminescence, 48 h; activity change, negative = growth inhibition: at 46.2 µM (top of the series); note: nearly all actives have a fitted effect of over 55% in size
In short: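 Camptothecin absent (DMSO only). Human TDP1-complemented DT40 knockout cells, 400 cells/well, 37 °C for minimum 48 hr; ATP measured via CellTiter-Glo, 30 min dark incubation, luminescence.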
% is set by controls: 0 for no effect and ±100 for the full control effect; potency is the fitted concentration of half-maximal effect; tags give direction and shape of the fitted curve.

Structure (SMILES) | Potency | activity change, negative = growth inhibition
COC(=O)C1=C(C(=O)OC)[C@]2([C@@H]3CCCCN[C@@H](Cc4ccccc4)C(=O)N3Cc3ccccc3)C=C[C@H]1O2 | active: 13 µM | –
CN(C)c1ccc(NC(=O)CN2CCN(S(=O)(=O)c3cc(Cl)ccc3Cl)CC2)cc1 | inconclusive: 10.3 µM [inhibitor, partial curve] | –
CN(Cc1ccsc1)C(=O)CCc1nnc(Cc2c[nH]c3ccccc23)o1 | inconclusive: 25.9 µM [inhibitor, partial curve, poor fit] | –
C=CC[n+]1ccnc2ccccc21 | inconclusive: 15.8 µM [inhibitor, partial curve] | –
Fc1ccc(CSc2ncnc3c2ncn3C2CCCCO2)cc1 (stereo not given) | inconclusive: 20.6 µM [inhibitor, partial curve, poor fit] | –
COc1cccc(C(NC(C)=O)c2nc(-c3cccc4cccnc34)cs2)c1 (stereo not given) | inconclusive: 23.1 µM [inhibitor, single point] | –
COc1ccc(N2CC(C(=O)N(CC(C)C)c3c(N)n(Cc4ccccc4)c(=O)[nH]c3=O)CC2=O)c(OC)c1 (stereo not given) | – | inactive: -15.8%
Cc1cc(=O)n2[nH]c(NC(=O)c3cccc(Cl)c3)nc2n1 | – | inconclusive: -30.9% [inhibitor]
Cc1cc(C)n(CCc2nc(-c3ccc(F)cc3)cs2)n1 | inconclusive: 20.6 µM [inhibitor, single point] | –
COCCCNC(=S)Nc1ccc(N2CCCCC2)cc1 | inconclusive: 32.6 µM [inhibitor, single point] | –
CN(C)c1cc(-c2ccccc2)nc(N)n1 | inconclusive: 23.1 µM [inhibitor, single point] | –
CCN1CCC2(CCN(Cc3cn[nH]c3-c3ccc(OC)c(F)c3)C2)C1 (stereo not given) | – | inactive: 2.99%
CNC(=S)NCCN1CCOCC1 | – | inactive: -3.54%
CC1=Nc2cc(C(=O)N3CCCCC3)ccc2Sc2ccc(C)cc21 | inactive and inconclusive: 29.1 µM [inhibitor, single point] | –
Cc1nc(Cl)c(C#N)c2c1CCCC2 | – | inactive: -8.66%
Cc1c(C(=O)NCc2ccc(OC(C)C)cc2)sc2ncnc(N(C)C3CCCCC3)c12 | inconclusive: 29.1 µM [inhibitor, single point] | –
Cc1csc(-c2nc3ccccc3n2C(C(=O)NC(C)(C)C)c2cc3ccccc3o2)c1 (stereo not given) | active: 14.6 µM | –
CCOc1ccc(-c2nc(CCl)cs2)cc1OC | active: 13 µM | –
O=CC1=C(N2CCOCC2)/C(=C\c2ccccc2)CC1 | – | inconclusive: -33.6% [inhibitor]
O=S(=O)(c1ccc(Oc2ccc(Br)cc2)cc1)N1CCOCC1 | active: 23.1 µM | –
Cc1c(/C=N/n2cnnc2)c2ccccc2n1CCOc1ccccc1 | inconclusive: 25.9 µM [inhibitor, single point] | –
CCN1C(=O)C(CC(=O)Nc2ccc(OC)cc2)N(Cc2cccs2)C1=S (stereo not given) | inconclusive: 2.82 µM [inhibitor, single point] | –
O=S(=O)(Nc1nc2ccccc2nc1Cl)c1ccc(Br)cc1 | inconclusive: 25.9 µM [inhibitor, single point] | –
COCCN(CCOC)c1nc(S(=O)(=O)c2ccc(C)cc2)c(Cl)s1 | inconclusive: 20.6 µM [inhibitor, single point] | –
O=C(Nc1ccc(Cl)cc1C(F)(F)F)C(Sc1nnc(-c2cccs2)o1)c1ccccc1 (stereo not given) | active: 20.6 µM | –

Structure (SMILES) | Potency | activity change, negative = growth inhibition
CCCC(=O)Nc1nnc(SCc2cc(=O)n3cccc(C)c3n2)s1 | – | inactive: -24.3%
COc1cc(C#Cc2c(-c3ccccc3)n(C)c3ccccc23)cc(OC)c1 | inconclusive: 20.6 µM [inhibitor, single point] | –
COc1ccc(-c2nc(CN3CCC(C(=O)NCc4ccc(F)cc4)CC3)c(C)o2)cc1OC | – | inactive: 1.78%
Cc1ccc(C(=O)N/C(=C/c2ccc(-c3ccc([N+](=O)[O-])cc3)o2)C(=O)NCCCN(C)C)cc1 | active: 20.6 µM | –
COc1ccc(C(=O)COC(=O)c2sccc2C)cc1OC | inconclusive: 29.1 µM [inhibitor, single point] | –
O=C(NCC1COc2ccccc2O1)C1CCN(S(=O)(=O)c2cccc3nsnc23)CC1 (stereo not given) | inconclusive: 29.1 µM [inhibitor, single point] | –
CN(CCc1ccccn1)C1CCCN(S(=O)(=O)c2ccccc2Cl)C1 (stereo not given) | – | inactive: -16.2%
COc1ccc(Oc2nc(-c3ccccc3)ncc2S(=O)(=O)c2ccccc2)cc1 | – | inconclusive: -31.9% [inhibitor]
COc1ccc(N(CC(=O)Nc2cc(OC)ccc2OC)S(=O)(=O)c2c(C)noc2C)cc1 | active: 23.1 µM | –
CCOc1ccc(S(=O)(=O)N2CCCC(C(=O)NCC3CCCO3)C2)cc1 (stereo not given) | – | inactive: -1.52%
Cc1ccc(C(=O)N(CCCN(C)C)c2nc3ccc(Cl)cc3s2)cc1C | inconclusive: 29.1 µM [inhibitor, single point] | –
O=C(NC1CCCCC1)C(c1ccc2ncccc2c1)N(Cc1ccc2c(c1)OCO2)C(=O)c1cccs1 (stereo not given) | inconclusive: 18.4 µM [inhibitor, single point] | –
CCCCOc1ccccc1NC(=O)c1ccc(=O)[nH]c1 | – | inactive: -3.73%
CC(C#N)Sc1nnc(-c2ccccc2F)n1C1CC1 (stereo not given) | inconclusive: 9.2 µM [inhibitor, partial curve] | –
O=C(NCC(c1ccc2c(c1)OCO2)N1CCN(c2ccccc2F)CC1)c1ccccc1F (stereo not given) | active: 14.6 µM | –
COc1ccc2oc(C)c(C(=O)c3ccccc3)c2c1 | inconclusive: 18.4 µM [inhibitor, single point] | –
Cc1ccc(S(=O)(=O)CCC(=O)OCC(=O)NCCc2ccc(F)cc2)cc1 | – | inactive: 0.628%
Cc1ccc(SCCC(=O)Nc2cc(C)on2)cc1 | – | inactive: 1.17%
CCn1ncc([N+](=O)[O-])c1C(=O)Nc1ccc(C(=O)N2CCCCC2)cc1 | inconclusive: 16.4 µM [inhibitor, single point] | –
CCOc1ncccc1C(=O)Nc1ccccc1N1CCOCC1 | inconclusive: 29.1 µM [inhibitor, single point] | –
Clc1ccc(Oc2cnns2)c(Cl)c1 | inconclusive: 32.6 µM [inhibitor, single point] | –
Fc1ccc(-c2cc(-c3nnc4n3CCCCC4)c3ccccc3n2)cc1 | – | inactive: 31.3%
COc1cc(OC)c(-c2nc3ccccc3s2)cc1OC | inconclusive: 20.6 µM [inhibitor, single point] | –
CCOC(=O)c1cccc(NC(=O)CN2CCN(c3ccc(OC)cc3)CC2)c1 | inconclusive: 5.8 µM [inhibitor, full curve, poor fit] | –
CCCCNC(=S)N(Cc1c(C)noc1C)c1ccccc1 | – | inactive: -22%

Structure (SMILES) | Potency | activity change, negative = growth inhibition
CC(C)n1c(-c2ccco2)csc1=Nc1cccnc1 | inconclusive: 12.6 µM [inhibitor, single point] | –
O=C(CSc1nnc(-c2ccco2)n1Cc1ccccc1)NCc1ccccc1 | inconclusive: 29.1 µM [inhibitor, single point] | –
Cc1cccc(N2CCN(C(=S)Nc3ccc4nc5n(c(=O)c4c3)CCCCC5)CC2)c1C | active: 20.6 µM | –
CCOc1ccc(-c2cc(C(=O)NC3CCCCC3)[nH]n2)c(C)c1 | – | inactive: -22.5%
Cc1ccc2nc(SCc3nnc(-c4cccs4)o3)[nH]c2c1 | active: 11.6 µM | –
CCN1CCN(c2ccc(NC(=O)c3ccco3)cc2)CC1 | – | inactive: 19.8%
Cc1ccc(OCc2cc(C(=O)NC3CCCCC3)no2)cn1 | active: 8.2 µM | –
Cn1c(CCNC(=O)C2CC23CCN(C(=O)C2=CCCC2)CC3)nc2ccccc21 (stereo not given) | – | inactive: -22.2%
NC(=O)CC(NC(=O)c1ccc(Cl)cc1)C(=O)NCCc1ccc(S(N)(=O)=O)cc1 (stereo not given) | – | inactive: 7.73%
Cc1ccc(C(=O)OCC(=O)NCc2cc(C)c(O)c(C)c2)cc1S(=O)(=O)N1CCCCC1 | inconclusive: 25.9 µM [inhibitor, single point] | –
COCCn1c(CNc2ccc(F)cc2)nnc1SCC(=O)Nc1ccc(OC)cc1OC | – | inactive: -21.4%
Cc1ccccc1C(=O)n1nc(-c2ccco2)nc1NCc1cccs1 | inconclusive: 29.1 µM [inhibitor, single point] | –
Cc1cc(C(=O)CN2C(=O)C3CC=CCC3C2=O)c(C)n1-c1ccccc1 (stereo not given) | active: 23.1 µM | –
O=C(COC(=O)CC1CCCC1)Nc1ccc(Cl)cn1 | – | inactive: -25.5%
CCCCn1nnnc1C(c1cc2ccccc2o1)N1CCCC1 (stereo not given) | – | inactive: -88.3%
CC(C)(C)C(c1nc2ccccc2[nH]1)n1c(-c2ccsc2)nc2ccccc21 (stereo not given) | inconclusive: 29.1 µM [inhibitor, single point] | –
CC(C)c1cccc(C(C)C)c1NC(=O)c1ccc(-c2cc(Cl)ccc2Cl)o1 | inconclusive: 20.6 µM [inhibitor, single point] | –
CC(C)(C)c1ccc(CC(=O)N2CCC2(C)C(=O)NCc2cccc3ccccc23)cc1 (stereo not given) | active: 25.9 µM | –
O=C(C[n+]1cccc(C(=O)Nc2ccccc2)c1)c1ccc([N+](=O)[O-])cc1 | inconclusive: 20.6 µM [inhibitor, single point] | –
COc1cc(OC)nc(Nc2nc(C(C)N)cs2)n1 (stereo not given) | inconclusive: 18.4 µM [inhibitor, single point] | –
CCCn1c(SCC(=O)Nc2cccc(S(=O)(=O)N(C)C)c2)nc2ccccc2c1=O | inconclusive: 29.1 µM [inhibitor, single point] | –
O=C(N/N=C/c1ccc(O)c(O)c1)NC12CC3CC(CC(C3)C1)C2 | active: 14.6 µM | –
COc1cc(Cl)c(C)cc1NC(=O)c1nn(C)c2c1CSc1ccccc1-2 | – | inactive: -2.06%
CCOc1ccccc1NC(=O)COc1coc(CN2CCCc3ccccc32)cc1=O | inconclusive: 23.1 µM [inhibitor, single point] | –
COC(=O)C(Cc1ccc(OC(=O)c2ccc(C(F)(F)F)cc2)cc1)N1Cc2ccccc2C1=O (stereo not given) | active: 18.4 µM | –

Source: PubChem BioAssay AID686978 (National Center for Advancing Translational Sciences (NCATS), 2013)
